The other results are listed elsewhere or left out.
What follows are sequences tested against no compound (DMSO) (assay: log2 fold change of degron read counts, EGFP-low vs EGFP+ sorted cells; higher = lower degron-EGFP level without compound (poor expression or instability)). Conditions: compound: DMSO control; 18 h.
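Also: jurkat cells carrying a lentiviral library of mutant zinc finger degrons fused to EGFP plus mCherry, mCherry+ cells FACS sorted, degron abundance counted by next-generation sequencing.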

Sequence	log2 fold change of degron read counts
FICEICGRPFTQKGNLLRHIKL	-0.964
FCCPQCGAYFTQKGNLLRHIKL	0.0398
LICEICGFCCTQKGNLLRHIKL	0.671
FFCPQCGADFTQKGNLLRHIKL	-2.13
FNCPVCGAHFTQKGNLLRHIKL	-0.273
FTCNQCGRVFTQKGNLLRHIKL	-0.377
FSCDICGAAFTQKGNLLRHIKL	-1.24
FRCEQCGASFTQKGNLLRHIKL	-2.22
FLCPICGARFTQKGNLLRHIKL	-0.381
FYCNQCGRGFTQKGNLLRHIKL	-0.147
FFCDICGAYFTQKGNLLRHIKL	-0.4
FMCPICGANFTQKGNLLRHIKL	-0.0201
FRCEICGAGFTQKGNLLRHIKL	-1.15
FGCNQCGADFTQKGNLLRHIKL	-0.491
FECEQCGAQFTQKGNLLRHIKL	-1.93
FNCDICGASFTQKGNLLRHIKL	-1.02
FFCNICGAYFTQKGNLLRHIKL	0.796
FECNICGAPFTQKGNLLRHIKL	-0.648
FYCDICGAMFTQKGNLLRHIKL	-0.345
LMCPICGFDCTQKGNLLRHIKL	1.04
FFCEICGRIFTQKGNLLRHIKL	-0.314
LKCPICGFVCTQKGNLLRHIKL	0.438
FFCDQCGADFTQKGNLLRHIKL	-1.65
FACPICGHFFTQKGNLLRHIKL	0.36
FTCPICGRHFTQKGNLLRHIKL	-0.198

Sequence	log2 fold change of degron read counts
FDCEICGHYFTQKGNLLRHIKL	0.926
LCCPICGFKCTQKGNLLRHIKL	0.37
FDCEICGRCFTQKGNLLRHIKL	-0.434
FCCDQCGAIFTQKGNLLRHIKL	-1.32
FACEICGHSFTQKGNLLRHIKL	-2.35
FLCEVCGAEFTQKGNLLRHIKL	-1.08
FWCPQCGACFTQKGNLLRHIKL	0.975
FMCPQCGAIFTQKGNLLRHIKL	0.746
FQCPQCGAYFTQKGNLLRHIKL	-0.864
FTCPICGALFTQKGNLLRHIKL	-0.0163
FNCNQCGHQFTQKGNLLRHIKL	-0.0982
FMCNICGANFTQKGNLLRHIKL	-0.097
FHCEICGAMFTQKGNLLRHIKL	-1.1
FMCEQCGAMFTQKGNLLRHIKL	-1.2
FKCNQCGHNFTQKGNLLRHIKL	0.266
FICEVCGAEFTQKGNLLRHIKL	-2.8
FSCPICGAVFTQKGNLLRHIKL	0.4
FWCEVCGADFTQKGNLLRHIKL	-1.2
FQCPICGAEFTQKGNLLRHIKL	-0.597
FDCEICGHQFTQKGNLLRHIKL	-1.16
FVCPVCGAAFTQKGNLLRHIKL	-0.307
LRCEICGFRCTQKGNLLRHIKL	0.282
FECNQCGRAFTQKGNLLRHIKL	-0.84
FTCNQCGHWFTQKGNLLRHIKL	0.225
FFCEICGRTFTQKGNLLRHIKL	-2

— the supplement of paper PMC12645437, “Orthogonal IMiD-Degron Pairs Induce Selective Protein Degradation in Cells” (ACS Chemical Biology, 2025)
